This is one part of the list. At the low end of the ranking, values are background and their order means little.
target: T1, GST-Rok-C97-191 (UniProt O34857); assay: protein binding microarray; conditions: Rok is a gene silencer of Bacillus subtilis; high values mean tight binding; most listed sequences are background and not binding sites; double strand, one strand shown;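 note: rank score from −0.5 (least bound) to 0.5 (best bound)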
T1 sequence: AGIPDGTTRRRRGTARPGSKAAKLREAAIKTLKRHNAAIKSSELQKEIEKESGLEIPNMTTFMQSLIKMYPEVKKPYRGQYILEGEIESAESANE

Row | Sequence | binding signal
1 | AGACGTGG | -0.228 E-score
2 | ACTGCGGA | -0.107 E-score
3 | GCCTTAGC | -0.184 E-score
4 | CCTTGAGA | -0.0382 E-score
5 | GCGCCAAA | -0.125 E-score
6 | GCTACAAA | 0.204 E-score
7 | CGAGCAAG | -0.0658 E-score
8 | TAGGTACA | 0.0903 E-score
9 | ACTCAGAG | -0.044 E-score
10 | ACCCTCGT | -0.204 E-score
11 | GGCTGCAA | -0.284 E-score
12 | CGACTCCG | -0.21 E-score
13 | TCCGGCGA | -0.0879 E-score
14 | CTGGGCAA | -0.156 E-score
15 | CGAAAGTC | -0.117 E-score
16 | CCTAGGCA | -0.198 E-score
17 | AACAGTGG | 0.102 E-score
18 | CCAGCTAG | 0.0626 E-score
19 | CGAGGGTA | -0.163 E-score
20 | TAGTTGGA | 0.0403 E-score
21 | AGGGACCC | -0.173 E-score
22 | CGACAGCG | -0.188 E-score
23 | CTGAAGGA | -0.156 E-score
24 | AGTGTAGC | 0.0633 E-score
25 | GACGCGAC | -0.178 E-score

Row | Sequence | binding signal
26 | GTATAAAC | 0.137 E-score
27 | ACTCCGAG | -0.0711 E-score
28 | CAGACTTC | 0.0764 E-score
29 | AATTGGCG | 0.135 E-score
30 | CGTACATA | 0.168 E-score
31 | ATTGCTGC | -0.0275 E-score
32 | CATAAGCA | 0.027 E-score
33 | ACATAATG | 0.181 E-score
34 | ACGACACT | 0.0814 E-score
35 | CTCCAGAA | -0.0556 E-score
36 | TCGTCCAA | -0.0486 E-score
37 | CAACCGTC | -0.011 E-score
38 | CAAATTAC | 0.33 E-score
39 | AGTGTCCG | -0.0702 E-score
40 | ACTACGCC | 0.000472 E-score
41 | AGTGTTGC | 0.13 E-score
42 | GCGGCTTA | -0.211 E-score
43 | CCCATCAG | -0.143 E-score
44 | CTACCGTA | 0.26 E-score
45 | CCGCTGCC | -0.289 E-score
46 | ATACCGTC | 0.0617 E-score
47 | AGAGAACG | 0.0501 E-score
48 | AGTTGAGG | 0.0783 E-score
49 | AACCCTCT | -0.204 E-score
50 | ATCGCTGA | 0.072 E-score

Row | Sequence | binding signal
51 | CCAAGAGC | -0.226 E-score
52 | AACGAGAG | -0.0985 E-score
53 | ACCAATGC | -0.0387 E-score
54 | GAGTGCTA | 0.173 E-score
55 | AAGCAACC | -0.189 E-score
56 | TCCTTTCA | -0.0519 E-score
57 | GCGACGCC | -0.28 E-score
58 | ACTGTCAG | -0.0551 E-score
59 | AATCGCAT | -0.00152 E-score
60 | GAACGCAA | -0.0522 E-score
61 | CCAATGTA | 0.181 E-score
62 | CGTTCCAC | -0.113 E-score
63 | GAGAGCGC | -0.329 E-score
64 | CGGAATGC | -0.0907 E-score
65 | AATGACGA | -0.0116 E-score
66 | AACCTCCT | -0.0841 E-score
67 | CCCCCAAA | -0.34 E-score
68 | AATCTTCT | 0.132 E-score
69 | GAGTAACC | -0.0845 E-score
70 | GTCAGTGA | -0.128 E-score
71 | GGTAACAC | 0.0899 E-score
72 | CTTTGGTC | -0.0609 E-score
73 | CCGCCACA | -0.208 E-score
74 | TCAGCTCA | -0.0912 E-score
75 | CGACAAGC | -0.172 E-score

Row | Sequence | binding signal
76 | ATTGTATA | 0.317 E-score
77 | GTTAGATA | 0.321 E-score
78 | AGACGTGA | -0.0265 E-score
79 | ACGGCGCC | -0.222 E-score
80 | CCTAATAC | 0.14 E-score
81 | TTCTTAAA | 0.0754 E-score
82 | ATCTGGCC | -0.14 E-score
83 | ACCACCCT | -0.0961 E-score
84 | AGCGGTTC | -0.199 E-score
85 | AGCCAACG | -0.273 E-score
86 | ATTCAAGC | -0.00937 E-score
87 | ACACCCCT | -0.293 E-score
88 | TTAGCGAA | 0.0761 E-score
89 | ATATAAGG | 0.0383 E-score
90 | GAAGCGGC | -0.333 E-score
91 | AATGAAAT | 0.184 E-score
92 | GTCGGCAC | -0.245 E-score
93 | GGGTTGAC | -0.2 E-score
94 | TCATGGAA | -0.0558 E-score
95 | ACAACCAT | -0.0136 E-score
96 | ATGCCCTA | -0.00598 E-score
97 | TGTTTTAA | 0.115 E-score
98 | GAGACAGC | -0.226 E-score
99 | CCCTTAAG | -0.126 E-score
100 | ATGAAGCA | -0.0894 E-score

Row | Sequence | binding signal
101 | CCACATTC | -0.116 E-score
102 | AGAAGATA | 0.193 E-score
103 | GCCACCCC | -0.177 E-score
104 | ACAACGGA | 0.0579 E-score
105 | GCCGTCGA | -0.143 E-score
106 | GGGGGACC | -0.34 E-score
107 | AGCCCTTA | -0.145 E-score
108 | CCCATAGG | -0.303 E-score
109 | TAATTCTA | 0.331 E-score
110 | GATGGTCC | -0.146 E-score
111 | AACAGAGT | 0.00928 E-score
112 | CCATCGCG | -0.0149 E-score
113 | TGCCAGAA | -0.053 E-score
114 | AGCTTCTA | 0.2 E-score
115 | GTCCTTAA | 0.0686 E-score
116 | CGAAAACC | -0.125 E-score
117 | ACAACAGC | -0.154 E-score
118 | AAATTGAG | 0.0287 E-score
119 | GATTAAAA | 0.109 E-score
120 | ACTGGGGG | -0.151 E-score
121 | AGTGCATG | -0.193 E-score
122 | CTGACATC | -0.162 E-score
123 | ACCAAACG | -0.0311 E-score
124 | CTGCCAAG | -0.104 E-score
125 | CTAAAATA | 0.295 E-score

Row | Sequence | binding signal
126 | GGACGAAC | -0.138 E-score
127 | ATACGGAG | 0.165 E-score
128 | ATCTATAC | 0.26 E-score
129 | GACCACCC | -0.321 E-score
130 | GCCTTGCC | -0.299 E-score
131 | ACCATAAA | 0.249 E-score
132 | CTCGCGCC | -0.231 E-score
133 | ACGATGAG | -0.054 E-score
134 | CACTACTG | 0.0489 E-score
135 | CAGACGGC | 0.0544 E-score
136 | GAGAAAGC | 0.000166 E-score
137 | ATTAAATG | 0.093 E-score
138 | TGCACACA | 0.00321 E-score
139 | CCGAGGCG | -0.183 E-score
140 | CACTCGGG | -0.143 E-score
141 | AATCAGAA | 0.0565 E-score
142 | AAACTGGG | -0.197 E-score
143 | CCATCGGG | -0.172 E-score
144 | GCAGCCAC | -0.313 E-score
145 | AATTAGGA | 0.185 E-score
146 | CAGACACC | 0.0685 E-score
147 | GCCAAAGC | -0.308 E-score
148 | AGACTGGA | -0.197 E-score
149 | ATGTCGGG | -0.0643 E-score
150 | CAACTACA | 0.234 E-score

Row | Sequence | binding signal
151 | GCTAATCC | -0.0789 E-score
152 | CCGCACCA | -0.123 E-score
153 | ACAACTCC | -0.0564 E-score
154 | GGAGCAAC | -0.102 E-score
155 | TACGGAGA | 0.127 E-score
156 | AGAGCATA | -0.189 E-score
157 | CATTCAGC | -0.21 E-score
158 | ATGCGGCA | -0.0172 E-score
159 | CTTACAGA | 0.0483 E-score
160 | CTGGGGAA | -0.122 E-score
161 | ATTCCTCA | 0.0114 E-score
162 | AAGTGTTC | -0.00454 E-score
163 | ATATAGAT | 0.399 E-score
164 | CAGCATGC | -0.087 E-score
165 | CATAGTGA | 0.0448 E-score
166 | CCCCCCTA | -0.227 E-score
167 | ACTTACTG | 0.244 E-score
168 | GCGACATA | 0.0144 E-score
169 | GCAGAGCA | -0.181 E-score
170 | AGAATTGA | 0.0635 E-score
171 | CTGCATTA | 0.17 E-score
172 | AGGAACTA | 0.115 E-score
173 | ATGCGCAT | 0.0578 E-score
174 | TAGCAAGA | 0.155 E-score
175 | CCGCCCCA | -0.269 E-score

Row | Sequence | binding signal
176 | AAGGTCCT | -0.181 E-score
177 | GTCTATTA | 0.0713 E-score
178 | ACGACGCT | -0.276 E-score
179 | ATATTTCG | 0.238 E-score
180 | CTAGCAAA | 0.181 E-score
181 | GGTGCATA | 0.236 E-score
182 | AACACGGC | -0.0807 E-score
183 | CGTCATTA | -0.0417 E-score
184 | CGGGCCTA | -0.196 E-score
185 | ATCGTAAA | 0.143 E-score
186 | AAAGATAC | 0.0421 E-score
187 | GTACGCAC | -0.0335 E-score
188 | ACTATTAG | 0.263 E-score
189 | GCAAGAAC | 0.0107 E-score
190 | ATGAAAAC | 0.021 E-score
191 | AGACTGCC | -0.228 E-score
192 | AGTATACA | 0.178 E-score
193 | CGTTCAAA | -0.0762 E-score
194 | ACTAGCAT | 0.142 E-score
195 | CGCCTTGA | -0.172 E-score
196 | AGATAGCT | 0.261 E-score
197 | AAACTAAA | 0.296 E-score
198 | CGAGCTAA | 0.00487 E-score
199 | CGACGCGC | -0.24 E-score
200 | AAGATTGC | -0.0164 E-score

Row | Sequence | binding signal
201 | GCCCTGGA | -0.158 E-score
202 | GGAGGTAA | 0.021 E-score
203 | ATCACAAT | 0.199 E-score
204 | ACCTAGAT | 0.144 E-score
205 | GGACAGCA | 0.00345 E-score
206 | GCCAACCA | -0.241 E-score
207 | ATCTACAT | 0.342 E-score
208 | GCTCACAA | -0.0941 E-score
209 | ATCAGCGC | -0.0644 E-score
210 | ACGTTTTG | -0.0255 E-score
211 | CATTGTTC | -0.0411 E-score
212 | AAGGAAAT | -0.000157 E-score
213 | GCACACCA | -0.0574 E-score
214 | GCAAACAA | -0.173 E-score
215 | AGGCGTCG | -0.126 E-score
216 | ACACAGAC | -0.211 E-score
217 | TGGTCACA | -0.22 E-score
218 | ATGCCATA | 0.081 E-score
219 | TCAGGACA | -0.209 E-score

Source: publication PMC6212790
